According to publication PMC4336329 (PLoS ONE, 2015):
Hit rate of the full screen: of about 310,000 compounds, about 2,200 (0.71%) showed an effect of 50% or more. Effects have a minus sign here. This is one part of the list.

target: human ether-à-go-go-related gene (hERG) potassium channel (human, UniProt Q12809); assay: primary screen, population patch clamp on CHO cells stably expressing hERG
Sequence (Q12809 whole entry, looked up): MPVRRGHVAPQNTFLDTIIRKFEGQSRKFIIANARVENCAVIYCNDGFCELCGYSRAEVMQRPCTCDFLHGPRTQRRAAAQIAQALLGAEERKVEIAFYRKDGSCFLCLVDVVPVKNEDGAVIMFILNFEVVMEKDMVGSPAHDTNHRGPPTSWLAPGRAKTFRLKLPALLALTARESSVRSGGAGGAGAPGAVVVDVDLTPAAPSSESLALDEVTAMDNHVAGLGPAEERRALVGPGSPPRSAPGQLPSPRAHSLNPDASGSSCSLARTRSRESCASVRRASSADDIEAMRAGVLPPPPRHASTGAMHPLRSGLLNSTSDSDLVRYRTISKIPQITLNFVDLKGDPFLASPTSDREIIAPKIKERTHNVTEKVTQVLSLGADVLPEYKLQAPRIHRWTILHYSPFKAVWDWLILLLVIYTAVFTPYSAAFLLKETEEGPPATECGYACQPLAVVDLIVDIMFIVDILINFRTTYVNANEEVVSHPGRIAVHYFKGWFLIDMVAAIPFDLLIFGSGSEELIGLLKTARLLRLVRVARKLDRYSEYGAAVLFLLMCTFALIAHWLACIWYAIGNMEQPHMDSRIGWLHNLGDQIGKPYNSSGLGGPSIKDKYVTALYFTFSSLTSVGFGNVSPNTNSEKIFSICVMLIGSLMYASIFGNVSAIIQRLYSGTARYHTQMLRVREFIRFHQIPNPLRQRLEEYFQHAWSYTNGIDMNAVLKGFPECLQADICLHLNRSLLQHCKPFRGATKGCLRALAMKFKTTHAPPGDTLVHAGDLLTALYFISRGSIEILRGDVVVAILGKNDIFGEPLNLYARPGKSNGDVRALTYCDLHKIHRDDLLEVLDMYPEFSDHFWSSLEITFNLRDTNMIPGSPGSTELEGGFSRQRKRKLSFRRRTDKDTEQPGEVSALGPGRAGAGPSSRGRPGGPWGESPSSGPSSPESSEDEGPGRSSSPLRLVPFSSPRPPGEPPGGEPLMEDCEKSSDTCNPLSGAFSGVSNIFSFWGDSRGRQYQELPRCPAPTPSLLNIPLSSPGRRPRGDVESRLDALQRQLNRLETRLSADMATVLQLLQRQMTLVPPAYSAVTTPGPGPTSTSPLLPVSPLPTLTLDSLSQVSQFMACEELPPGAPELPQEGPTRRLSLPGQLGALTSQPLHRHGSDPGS

Compound | hERG current change (%, negative = inhibition) at 1uM
NCCC(=O)NCCc1cnc[nH]1 | 18.3%
COc1ccc(CCC(N)=O)cc1OC | 9.63%
CCOc1ccccc1C1NC(=O)NC(C)=C1C(=O)OC1CCCCC1 (stereo not drawn) | 14.7%
CC(NC(=O)COC(=O)c1ccc(Cl)cc1O)c1ccc(F)cc1 (stereo not drawn) | 10.3%
CC12CN3CN(C1)CC(C)(C3)C2=NO | 11.6%
COc1cc(NC(=S)N2CCN(S(C)(=O)=O)CC2)cc(OC)c1 | 9.54%
CCCn1c(=O)c(C(=O)NCc2ccccn2)c(O)c2ccccc21 | 11.3%
CCOC(=O)C(CC(=O)c1ccccc1)CC(=O)c1ccccc1 | 7.93%
C/C=C/c1ccc(OC(C)=O)c(OC)c1 | 8.76%
CC1(C)C=Cc2c(c3c(c4c(=O)c(-c5ccc(O)cc5)coc24)OC(C)(C)CC3)O1 | 12.3%
O=C(N/N=C/c1cccc(Oc2ccc([N+](=O)[O-])cc2[N+](=O)[O-])c1)c1cncc(Br)c1 | -3.54%
O=C(NC1CC1)c1nc2c(nnn2Cc2ccccc2Cl)c(=O)[nH]1 | 0.187%
Cc1nn(CC(=O)N/N=C/c2ccc(F)cc2)c(C)c1[N+](=O)[O-] | 8.43%
CC[C@H]1CC2CN3CCc4c([nH]c5c([C@H]6C[C@H]7[C@H](CC)CN(C)[C@@H](Cc8c6[nH]c6ccccc86)[C@H]7C(=O)OC)c(OC)ccc45)C(C(=O)OC)(C2)C13 | 6.56%
CCOc1ccccc1NC(=O)C(=O)NCC1CCCN1CC (stereo not drawn) | -12%
Cn1c(/C(C#N)=C(\O)c2ccc([N+](=O)[O-])s2)nc2ccccc21 | 18.1%
CCC(=O)N1CCN(c2c(Cl)cccc2[N+](=O)[O-])CC1 | -0.627%
O=C(COC(=O)C1=COCCO1)Nc1ccc(F)c(F)c1 | 8.98%
CCc1ccc(NC(=O)[C@H](C)NC(=O)C2CCN(C(=O)[C@@H](N)Cc3ccccc3)CC2)cc1 | -8.45%
Cc1ccc(/C=C/C(=O)N2CCCN(C(=O)/C=C/c3ccc(C)cc3)CC2)cc1 | -53.5%
O=C(COc1ccc(S(=O)(=O)Nc2ccccc2)cc1)NCc1ccccn1 | -6.72%
NS(=O)(=O)c1c(Sc2ccccc2C(=O)O)ccc2ccccc12 | 21.1%
CC(=O)C1=C(C)N(Cc2ccccc2)C(=O)N[C@@H]1c1cccc(C(F)(F)F)c1 | 4.96%
COc1ccc(C)cc1NC(=O)NC(C)c1ccc2c(c1)OCO2 (stereo not drawn) | 13.7%
